{"source": "PubChem BioAssay (NCATS)", "note": "This list was built around the results that the source calls inconclusive (neither active nor inactive); the mix of calls is not that of the screen. Potencies of inconclusive entries are left out as doubtful fits. Calls of active or inactive are those of the source. The call rests on the fitted dose curve; in most records, active means well fitted cell-killing curve with a large enough effect; inconclusive means small, poorly fitted or top-dose-only effect; inactive means no such curve, though single readings can be large or run the other way. Potency means the concentration at half of the fitted maximal effect; tags describe the fitted curve by direction and shape.", "data": [{"test": "qHTS of pediatric cancer cell lines to identify multiple opportunities for drug repurposing: Primary screen for Rh30 cells (AID 1347107); further: nearly all actives have a fitted effect of over 75% in size; on activity change, negative = cytotoxic: on the % scale 0 is the no-effect control and ±100 the full control effect", "settings": "Rh30 rhabdomyosarcoma viability, CellTiter-Glo luminescence, 48 h; series mostly up to 46 µM; activity change, negative = cytotoxic: at the top concentration", "summary_of_the_method": "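Cells (500-1,000/well) rested 5 h, then received compounds for 48 h; metabolically active cells were measured by CellTiter-Glo luminescence. Final concentrations spanned up to 46 µM (MIPE, 11-point) or 0.59 nM-46 µM (NPC, 8-point) in primary screens, 11-point in follow-ups.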", "values": [{"smiles": "COc1cc(OC)cc(OC)c1", "activity change, negative = cytotoxic": "inactive: 24.4%"}, {"smiles": "CC(=O)N(O)CCCCCNC(=O)CCC(=O)N(O)CCCCCNC(=O)CCC(=O)N(O)CCCCCN", "Potency": "inconclusive [cytotoxic, partial curve]"}, {"smiles": "NC(=O)c1noc([C@H](CCCC2CCCCC2)CC(=O)NO)n1", "Potency": "active: 18.7 µM"}, {"smiles": "CCCCc1nc2cc(C=CC(=O)NO)ccc2n1CCN(CC)CC", "Potency": "inconclusive [cytotoxic, full curve]"}, {"smiles": "O=C(CCCCCCNC(=O)c1cnc(N(c2ccccc2)c2ccccc2)nc1)NO", "Potency": "active: 14.8 µM"}, {"smiles": "CCN(CC)CCNC(=O)c1c(C)[nH]c(/C=C2\\C(=O)Nc3ccc(F)cc32)c1C", "Potency": "inconclusive [cytotoxic, single point]"}, {"smiles": "NC(=O)c1cccc(-c2cccc(OC(=O)NC3CCCCC3)c2)c1", "activity change, negative = cytotoxic": "inactive: 26.1%"}, {"smiles": "CCN1CCN(CC(=O)Nc2ccc(-c3cccc4c(=O)cc(N5CCOCC5)oc34)c3sc4ccccc4c23)CC1", "Potency": "active: 10.5 µM"}, {"smiles": "Cc1cnc(CNC(=O)c2c(=O)c3ccc(N4CCCN(C)CC4)nc3n3c2sc2ccccc23)cn1", "Potency": "inconclusive [cytotoxic, partial curve]"}, {"smiles": "CCCCOC(=O)c1ccc(N)cc1", "activity change, negative = cytotoxic": "inactive: 27.8%"}, {"smiles": "C[C@H](NC(=O)C(C#N)=Cc1cccc(Br)n1)c1ccccc1", "Potency": "active: 23.5 µM"}, {"smiles": "NNCCc1ccccc1", "Potency": "inactive"}, {"smiles": "CCN1CCCC1=O", "activity change, negative = cytotoxic": "inactive: 22.2%"}, {"smiles": "COC(=O)c1ccc(O)cc1", "activity change, negative = cytotoxic": "inactive: 19.6%"}, {"smiles": "COc1ccc(S(=O)(=O)Nc2cc(-c3c(O)ccc4ccccc34)c(O)c3ccccc23)cc1", "Potency": "inconclusive [cytotoxic, partial curve]"}, {"smiles": "NC(=O)c1ncn([C@@H]2O[C@H](CO)[C@@H](O)[C@H]2O)c1O", "activity change, negative = cytotoxic": "inactive: 19.3%"}, {"smiles": "Fc1cc(-c2cccc3ncc(-c4cnn(C5CCNCC5)c4)nc23)cc(F)c1CN1CCOCC1", "Potency": "active: 23.5 µM"}, {"smiles": "CC(C)COC(=O)c1ccc(N)cc1", "activity change, negative = cytotoxic": "inactive: 18.2%"}, {"smiles": "Cc1ccc(NC(=O)c2cccc(N(C)C)c2)cc1NC(=O)c1ccc(O)cc1", "Potency": "inconclusive [cytotoxic, full curve, poor fit]"}, {"smiles": "O=C(Nc1ncc([N+](=O)[O-])s1)c1cccs1", "Potency": "inconclusive [cytotoxic, single point]"}, {"smiles": "CN(C)CCOc1ccc(-c2nc(-c3ccc4c(c3)CCC4=NO)c(-c3ccncc3)[nH]2)cc1", "Potency": "active: 18.7 µM"}, {"smiles": "CCCCCCCCCCCCCC[N+](C)(C)C", "Potency": "inconclusive [cytotoxic, partial curve]"}, {"smiles": "NC(=O)C(=O)N/N=C/c1ccc([N+](=O)[O-])o1", "Potency": "inconclusive [cytotoxic, single point]"}, {"smiles": "COc1cc2nc(-c3cc(F)ccc3O)nc(N[C@@H]3CNC[C@@H]3C(C)(C)O)c2cc1OC", "Potency": "inconclusive [cytotoxic, partial curve]"}, {"smiles": "O=c1c(-c2ccccc2)c1-c1ccccc1", "Potency": "inconclusive [cytotoxic, single point]"}, {"smiles": "c1ccc2c(CCNc3ccc(Nc4ccncc4)cc3)c[nH]c2c1", "Potency": "inconclusive [cytotoxic, partial curve]"}, {"smiles": "CCN(CC)CCCCNc1ncc2cc(-c3cc(OC)cc(OC)c3)c(NC(=O)NC(C)(C)C)nc2n1", "Potency": "inconclusive [cytotoxic, partial curve]"}, {"smiles": "Cc1ccc(O)c2ncccc12", "Potency": "inconclusive [cytotoxic, single point]"}, {"smiles": "Cc1cc(Cl)ccc1OCCCC(=O)NO", "Potency": "inconclusive [cytotoxic, partial curve]"}, {"smiles": "CC12CC3CC(C)(C1)CC(N)(C3)C2", "Potency": "inconclusive [cytotoxic, partial curve]"}, {"smiles": "NC(=O)N1c2ccccc2C=Cc2ccccc21", "activity change, negative = cytotoxic": "inactive: 27.8%"}, {"smiles": "NC1(C(=O)N[C@@H](CCO)c2ccc(Cl)cc2)CCN(c2ncnc3[nH]ccc23)CC1", "Potency": "inconclusive [cytotoxic, partial curve]"}, {"smiles": "COC(=O)[C@@H]1[C@H]2C[C@H]3c4[nH]c5ccccc5c4CCN3C[C@@H]2CC[C@@H]1O", "activity change, negative = cytotoxic": "inactive: 11.5%"}, {"smiles": "CN1CCN(C(=O)C2CCCCC2)CC1", "activity change, negative = cytotoxic": "inactive: 22.8%"}, {"smiles": "O=C(CCCCCCC(=O)Nc1ccc([C@H]2O[C@@H](CSc3nc(-c4ccccc4)c(-c4ccccc4)o3)C[C@@H](c3ccc(CO)cc3)O2)cc1)NO", "Potency": "active: 14.8 µM"}, {"smiles": "CCCN1CCCC[C@H]1C(=O)Nc1c(C)cccc1C", "activity change, negative = cytotoxic": "inactive: 6.74%"}, {"smiles": "CCCCCN=C(N)N/N=C/c1c[nH]c2ccc(OC)cc12", "Potency": "inconclusive [cytotoxic, single point]"}, {"smiles": "CCCN(CCC)CCc1cccc2c1CC(=O)N2", "activity change, negative = cytotoxic": "inactive: 9.07%"}, {"smiles": "Cc1nnc(NS(=O)(=O)c2ccc(N)cc2)s1", "Potency": "inconclusive [cytotoxic, partial curve]"}]}, {"test": "qHTS of pediatric cancer cell lines to identify multiple opportunities for drug repurposing: Primary screen for Rh41 cells (AID 1347108); further: nearly all actives have a fitted effect of over 70% in size;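 on activity change, negative = cytotoxic: luminescence drop marks cytotoxic hits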", "settings": "Rh41 rhabdomyosarcoma viability, CellTiter-Glo luminescence, 48 h; series mostly up to 46 µM; activity change, negative = cytotoxic: at the top concentration", "summary_of_the_method": "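Phenotypic viability qHTS, 48 h compound exposure, CellTiter-Glo luminescence read-out; multi-concentration dosing so that potency and efficacy derive directly from the primary screen's curves.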", "values": [{"smiles": "CC(=O)N(O)CCCCCNC(=O)CCC(=O)N(O)CCCCCNC(=O)CCC(=O)N(O)CCCCCN", "Potency": "inconclusive [cytotoxic, partial curve]"}, {"smiles": "CCN(CC)CCNC(=O)c1c(C)[nH]c(/C=C2\\C(=O)Nc3ccc(F)cc32)c1C", "Potency": "active: 21.1 µM"}, {"smiles": "CCCCOC(=O)c1ccc(N)cc1", "activity change, negative = cytotoxic": "inactive: 31.7%"}, {"smiles": "COc1ccc(S(=O)(=O)Nc2cc(-c3c(O)ccc4ccccc34)c(O)c3ccccc23)cc1", "Potency": "active: 18.7 µM"}, {"smiles": "O=C(Nc1ncc([N+](=O)[O-])s1)c1cccs1", "Potency": "inconclusive [cytotoxic, single point]"}, {"smiles": "CN(C)CCOc1ccc(-c2nc(-c3ccc4c(c3)CCC4=NO)c(-c3ccncc3)[nH]2)cc1", "Potency": "active: 23.5 µM"}, {"smiles": "CCCCCCCCCCCCCC[N+](C)(C)C", "Potency": "inconclusive [cytotoxic, partial curve]"}, {"smiles": "NC(=O)C(=O)N/N=C/c1ccc([N+](=O)[O-])o1", "Potency": "inconclusive [cytotoxic, single point]"}, {"smiles": "COc1cc2nc(-c3cc(F)ccc3O)nc(N[C@@H]3CNC[C@@H]3C(C)(C)O)c2cc1OC", "Potency": "active: 23.5 µM"}, {"smiles": "O=c1c(-c2ccccc2)c1-c1ccccc1", "Potency": "inconclusive [cytotoxic, single point]"}, {"smiles": "c1ccc2c(CCNc3ccc(Nc4ccncc4)cc3)c[nH]c2c1", "Potency": "active: 18.7 µM"}, {"smiles": "Cc1ccc(O)c2ncccc12", "Potency": "active: 4.73 µM"}, {"smiles": "CCCCCN=C(N)N/N=C/c1c[nH]c2ccc(OC)cc12", "Potency": "inconclusive [cytotoxic, partial curve]"}]}]}
